Source: the supplement of paper PMC4723716
± gives the uncertainty stated by the source. Whole data set: some 9,900 compounds, median “viability index relative to DMSO control” near 1, cut for the lowest 2% near 0.85. This is one part of the list.

Tested on: Plasmodium falciparum NF54 stage V gametocytes
Assay: viability index relative to DMSO control (fraction); higher = less gametocyte killing
Conditions: 2.5 µM, incubation time: 72 h
Method in brief: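 In 1,536-well plates, 10 µl of serum-free medium holding P. falciparum NF54 stage V gametocytes (0.75% gametocytemia, 1.25% hematocrit) received compound at 2.5 µM for 72 hr at 37°C in low oxygen. After one to two hours with 3 µl of 2.5 µM MitoTracker Red CMXRos containing 0.13% saponin, red particles of 20–70 µm2 were counted in a single field per well. Viability index is reported as the particle count over the plate mean of wells treated with solvent only.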

[1] = library set: Broad Institute DOS

Compound | viability index [1] | viability index (library set: Broad Institute Blood Stage)
CC(=O)NC[C@@H]1[C@@H](c2ccc(C#Cc3ccccc3F)cc2)[C@@H](CO)N1C(C)=O | 0.953 ± 0.059 | 
COc1cccc(CN2C[C@]3(CCN(C)CC3)c3c([nH]c4cc(OC)ccc34)[C@@H]2CO)c1 | 0.976 ± 0.058 | 
O=C(Cc1ccccn1)N1CC2(C1)[C@H](c1ccccc1)[C@@H](CO)N2C(=O)c1ccncc1 | 1.09 ± 0.026 | 
C[C@@H]1CN([C@@H](C)CO)C(=O)c2c(c3ccccc3n2C)-c2ccccc2CO[C@H]1CN(C)Cc1cccc(C(=O)Nc2ccccc2N)c1 | 0.969 ± 0.056 | 
CN1c2ccc(C#Cc3cccnc3)cc2[C@@H]2[C@@H](CCN2C(=O)CN2CCOCC2)[C@H]1CO | 1.2 ± 0.032 | 
COc1cccc(C#Cc2ccc([C@H]3[C@@H](CO)N4C(=O)CN(C(=O)Cc5cccnc5)C[C@H]34)cc2)c1 | 0.804 ± 0.11 | 
Cc1noc(C)c1NC(=O)N[C@H]1C=C[C@H](CC(=O)Nc2ccc(-c3ccccc3)cc2)O[C@H]1CO | 1.0744 ± 0.00039 | 
C[C@@H](NC(=O)[C@H]1[C@H](CO)[C@H]2Cn3c(cccc3=O)[C@H]2N1CCC(F)(F)F)c1ccccc1 | 1.01 ± 0.065 | 
O=C(CN1CCOCC1)N[C@H]1CC[C@@H](CCn2cc(C3CC3)nn2)O[C@H]1CO | 1.14 ± 0.11 | 
Cc1ccccc1-c1ccc([C@@H]2[C@@H]3CN(Cc4cocn4)C[C@H]2N3)cc1 | 0.949 ± 0.05 | 
C[C@@H]1CN([C@H](C)CO)C(=O)CCCn2nncc2CO[C@H]1CN(C)C(=O)Nc1cccc(Oc2ccccn2)c1 | 1.03 ± 0.1 | 
COCCNC(=O)C[C@@H]1CC[C@H]2[C@@H](COC[C@@H](O)CN2Cc2ccc(Cl)c(Cl)c2)O1 | 1.02 ± 0.014 | 
Cc1ccc(S(=O)(=O)N[C@@H]2C=C[C@@H](CC(=O)NCc3ccc(Cl)c(Cl)c3)O[C@H]2CO)cc1 | 1.03 ± 0.1 | 
CCCC(=O)Nc1ccc2c(c1)C(=O)N(C)[C@@H]1CC[C@@H](CC(=O)NCc3cccc(F)c3)O[C@@H]1CO2 | 1.03 ± 0.056 | 
CC(C)[C@@H]1C/C=C/C[C@H](C)Oc2ccccc2C(=O)N(C)[C@@H](C(C)C)C(=O)N1.CC(C)[C@@H]1C/C=C\C[C@H](C)Oc2ccccc2C(=O)N(C)[C@@H](C(C)C)C(=O)N1 | 1.05 ± 0.099 | 
C/C=C/c1cccc(-c2nc(C(=O)NCc3ccccn3)cc3c2[C@H](CCO)N([S@@](=O)C(C)(C)C)C3)c1 | 1 ± 0.04 | 
O=C(CCN1CCCCC1)N[C@H]1CC[C@@H](CCn2cc(-c3cccc(F)c3)nn2)O[C@H]1CO | 1.07 ± 0.038 | 
N#C[C@@H]1[C@H](c2ccccc2)[C@H](CO)N1C(=O)c1cc(Cl)cc(Cl)c1 | 1.07 ± 0.089 | 
O=C(C[C@@H]1C=C[C@@H](NS(=O)(=O)c2ccc(F)cc2)[C@H](CO)O1)N1CCc2ccccc2C1 | 1.03 ± 0.094 | 
CN1C(=O)c2cc(NC(=O)C3CCOCC3)ccc2OC[C@H]2O[C@H](CC(=O)NCCc3ccncc3)CC[C@H]21 | 1.06 ± 0.066 | 
COc1ccc2c3c([nH]c2c1)[C@H](CO)NC[C@]31CCN(CC1)C(=O)c1ccccc1 | 0.97 ± 0.13 | 
COC(=O)C[C@H]1CC[C@@H]2[C@@H](COc3ccc(NC(=O)c4ccc(C(F)(F)F)cc4)cc3C(=O)N2C)O1 | 1.053 ± 0.0064 | 
C[C@@H]1CN([C@H](C)CO)C(=O)c2c(c3ccccc3n2C)-c2ccccc2CO[C@@H]1CN(C)C(=O)NC1CCCCC1 | 1.02 ± 0.087 | 

Compound | viability index [1] | viability index (library set: Broad Institute Blood Stage)
O=S(=O)(c1ccccc1)N1CCCCN2[C@H](C1)[C@H](c1ccc(C#CC3CCCC3)cc1)[C@@H]2CO | 1.03 ± 0.031 | 
COc1cccc(CNC(=O)C[C@@H]2CC[C@H]3[C@H](COc4ccc(NC(=O)c5cccs5)cc4C(=O)N3C)O2)c1 | 0.93 ± 0.013 | 
COc1ccc2c3c([nH]c2c1)[C@H](CO)N(C)C[C@]31CCN(CC1)C(=O)CN(C)C | 0.919 ± 0.017 | 
CN1C(=O)c2cc(NC(=O)Nc3ccccc3F)ccc2OC[C@H]2O[C@@H](CC(=O)NCCc3ccncc3)CC[C@@H]21 | 0.976 ± 0.11 | 
COCC(=O)N1C[C@]2(CCN(CC2)C(=O)c2cccnc2)c2c([nH]c3cc(OC)ccc23)[C@@H]1CO | 0.958 ± 0.054 | 
CO[C@H](CN(C)S(=O)(=O)c1ccc(C)cc1)[C@H](C)CN([C@H](C)CO)S(=O)(=O)c1cccc(Cl)c1 | 0.9977 ± 0.0033 | 
CCN(C[C@H]1[C@H](c2ccccc2)[C@H](CO)N1C(C)=O)C(=O)NC1CCCC1 | 0.961 ± 0.015 | 
Cc1noc(C)c1NC(=O)N(C)C[C@H]1OCc2cnnn2CCCC(=O)N([C@H](C)CO)C[C@@H]1C | 1.04 ± 0.026 | 
O=C(C1CC1)N1C[C@@H]2N[C@H](C1)[C@@H]2c1ccc(-c2ccccc2F)cc1 |  | 0.988 ± 0.046
C/C=C/c1cnc2c(c1)C(=O)N([C@H](C)CO)C[C@@H](C)[C@@H](CN(C)C(=O)Nc1cccc(OC)c1)O2 | 1.01 ± 0.018 | 
O=C([C@H]1N[C@H]2c3ccc(/C=C/c4ccccc4)c(=O)n3C[C@H]2[C@@H]1CO)N1CCCCC1 | 0.992 ± 0.14 | 
O=C(NC1CCCC1)N1CCCCN2[C@H](CO)[C@@H](c3ccc(-c4cccnc4)cc3)[C@H]2C1 | 0.99 ± 0.035 | 
C[C@@H](NC(=O)C[C@H]1CC[C@@H]2[C@@H](COc3ccc(NC(=O)C4CCOCC4)cc3C(=O)N2C)O1)c1ccccc1 | 1.16 ± 0.019 | 
CCC(=O)N1[C@@H](CO)[C@@H]2c3ccccc3N(C(=O)c3cnccn3)C[C@@H]21 | 1.01 ± 0.013 | 
OC[C@@H]1Nc2ccc(-c3cccc(F)c3)cc2[C@H]2[C@@H]1CCN2Cc1ccc(F)cc1 | 1.05 ± 0.045 | 
CNC(=O)C[C@H]1CC[C@H]2[C@H](COc3ccc(NS(=O)(=O)c4ccc(F)cc4)cc3C(=O)N2C)O1 | 1.05 ± 0.054 | 
Cc1noc(C)c1S(=O)(=O)Nc1ccc2c(c1)C(=O)N([C@H](C)CO)C[C@H](C)[C@H](CN(C)C(=O)Nc1cccc3ccccc13)OCCCC[C@H](C)O2 | 0.983 ± 0.0032 | 
C[C@H](CO)N1C[C@H](C)[C@H](CN(C)C(=O)[C@H]2CCCN2C)OCc2ccccc2-c2ccccc2C1=O | 1.02 ± 0.019 | 
COc1ccc(C[C@@H]2CCn3cc(nn3)COC[C@@H](C)NC2=O)cc1 | 1.03 ± 0.042 | 
N#C[C@@H]1[C@@H](c2ccccc2-c2ccc(F)cc2)[C@H](CO)N1C(=O)Cc1cccnc1 | 1.15 ± 0.1 | 
C[C@@H]1CN([C@@H](C)CO)C(=O)c2c(c3ccccc3n2C)-c2ccccc2CO[C@H]1CN(C)C(=O)Nc1ccccc1C(F)(F)F | 0.805 ± 0.084 | 
COc1cccc(-c2ccc([C@H]3[C@@H](CO)N4C(=O)CN(C(=O)c5cccnc5)C[C@@H]34)cc2)c1 | 1.04 ± 0.017 | 
